Data taken from PMC7060200, “Selective Binding of HSC70 and its Co-Chaperones to Structural Hotspots on CFTR” (Scientific Reports, 2020).
No constants are given. Whether binding was seen depends on the method and setting. Some binding calls cover weakened binding; strength is not graded here.

Sequences of proteins named here, by UniProt entry; tags and fusion partners are left off. A change or cut given only in a name is not applied to a line headed by its entry.
UniProt O60884: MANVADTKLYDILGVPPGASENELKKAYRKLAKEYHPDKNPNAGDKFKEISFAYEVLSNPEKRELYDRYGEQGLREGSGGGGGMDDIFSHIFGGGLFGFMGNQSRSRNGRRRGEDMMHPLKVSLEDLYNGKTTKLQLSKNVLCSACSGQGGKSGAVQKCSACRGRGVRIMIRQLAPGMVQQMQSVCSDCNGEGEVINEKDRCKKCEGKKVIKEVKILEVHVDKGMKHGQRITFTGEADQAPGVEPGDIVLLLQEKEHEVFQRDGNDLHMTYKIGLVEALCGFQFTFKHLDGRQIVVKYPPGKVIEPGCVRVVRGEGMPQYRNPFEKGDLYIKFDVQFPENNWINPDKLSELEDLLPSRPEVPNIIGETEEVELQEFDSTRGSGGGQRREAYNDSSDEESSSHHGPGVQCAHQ
UniProt P11142: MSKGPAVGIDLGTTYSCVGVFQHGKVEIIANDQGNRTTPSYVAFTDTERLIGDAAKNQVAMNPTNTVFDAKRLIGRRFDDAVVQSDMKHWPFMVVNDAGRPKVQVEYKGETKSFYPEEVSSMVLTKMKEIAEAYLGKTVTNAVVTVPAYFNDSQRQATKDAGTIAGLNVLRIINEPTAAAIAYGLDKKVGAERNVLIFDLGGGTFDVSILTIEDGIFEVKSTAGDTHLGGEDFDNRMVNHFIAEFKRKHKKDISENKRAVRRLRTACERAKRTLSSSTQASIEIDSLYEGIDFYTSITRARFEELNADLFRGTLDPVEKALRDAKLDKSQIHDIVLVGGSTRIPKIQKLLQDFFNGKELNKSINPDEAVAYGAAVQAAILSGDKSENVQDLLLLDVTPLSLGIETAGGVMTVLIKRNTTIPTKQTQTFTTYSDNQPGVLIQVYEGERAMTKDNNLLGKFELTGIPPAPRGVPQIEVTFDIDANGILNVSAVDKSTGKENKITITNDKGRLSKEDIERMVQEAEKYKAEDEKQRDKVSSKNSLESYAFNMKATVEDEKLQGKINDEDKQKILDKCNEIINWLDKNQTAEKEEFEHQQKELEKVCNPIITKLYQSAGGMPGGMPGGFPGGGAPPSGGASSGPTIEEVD
UniProt P13569: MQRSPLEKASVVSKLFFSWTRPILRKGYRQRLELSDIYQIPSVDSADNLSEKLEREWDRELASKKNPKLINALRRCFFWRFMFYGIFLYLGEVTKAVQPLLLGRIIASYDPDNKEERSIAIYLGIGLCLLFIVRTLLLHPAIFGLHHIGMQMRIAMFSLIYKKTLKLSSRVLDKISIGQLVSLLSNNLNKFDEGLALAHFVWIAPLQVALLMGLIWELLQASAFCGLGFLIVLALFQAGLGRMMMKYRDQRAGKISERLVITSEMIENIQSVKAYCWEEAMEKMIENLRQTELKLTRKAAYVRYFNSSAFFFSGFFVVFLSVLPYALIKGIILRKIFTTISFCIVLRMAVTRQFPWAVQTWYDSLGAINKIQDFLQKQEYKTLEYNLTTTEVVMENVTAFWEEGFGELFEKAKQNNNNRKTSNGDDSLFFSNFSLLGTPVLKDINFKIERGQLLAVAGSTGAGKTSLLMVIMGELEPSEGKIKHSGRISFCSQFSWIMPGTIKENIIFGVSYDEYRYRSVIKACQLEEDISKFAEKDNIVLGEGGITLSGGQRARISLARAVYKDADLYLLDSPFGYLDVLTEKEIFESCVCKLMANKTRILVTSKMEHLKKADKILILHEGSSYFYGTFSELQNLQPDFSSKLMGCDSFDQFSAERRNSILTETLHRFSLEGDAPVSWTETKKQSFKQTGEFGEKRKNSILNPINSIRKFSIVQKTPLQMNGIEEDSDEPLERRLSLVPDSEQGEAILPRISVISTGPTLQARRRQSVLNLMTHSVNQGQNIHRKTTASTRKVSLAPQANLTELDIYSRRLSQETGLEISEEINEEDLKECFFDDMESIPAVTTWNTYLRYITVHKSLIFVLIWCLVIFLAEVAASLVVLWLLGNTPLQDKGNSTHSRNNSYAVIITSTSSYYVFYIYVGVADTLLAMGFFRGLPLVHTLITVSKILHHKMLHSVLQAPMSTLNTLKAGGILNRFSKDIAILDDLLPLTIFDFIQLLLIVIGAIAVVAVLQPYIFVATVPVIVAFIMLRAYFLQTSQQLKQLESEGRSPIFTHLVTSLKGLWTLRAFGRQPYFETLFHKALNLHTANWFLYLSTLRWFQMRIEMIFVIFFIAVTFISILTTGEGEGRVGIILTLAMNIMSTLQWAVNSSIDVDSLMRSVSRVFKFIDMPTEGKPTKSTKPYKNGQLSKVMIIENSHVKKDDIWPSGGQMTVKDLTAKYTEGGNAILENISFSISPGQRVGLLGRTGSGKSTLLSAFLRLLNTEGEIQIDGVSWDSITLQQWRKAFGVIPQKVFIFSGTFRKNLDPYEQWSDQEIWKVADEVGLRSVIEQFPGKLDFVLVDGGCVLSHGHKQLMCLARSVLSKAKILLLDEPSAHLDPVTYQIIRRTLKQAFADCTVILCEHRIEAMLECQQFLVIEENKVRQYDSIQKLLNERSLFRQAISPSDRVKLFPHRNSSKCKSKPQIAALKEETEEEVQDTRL

How the values were obtained:
[1] = target: DNAJA2 (DJA2), His-tagged (UniProt O60884); experiment: ELISA; competition: 1 μM chaperone mixed with soluble peptide (titrated up to 100 μM, or fixed 100 μM in the screens) and bound to immobilised 1097-L; Kd of the competing peptide from linearised competition curves; both purified
[2] = target: DNAJA1 (DJA1), His-tagged (UniProt P31689); experiment: as above
[3] = target: HSC70 (HSPA8), His-tagged (UniProt P11142); experiment: as above
[4] = target: HSC70 (HSPA8), His-tagged (UniProt P11142); experiment: ELISA; competition: NBD1 immobilised on streptavidin plates, incubated at 30 °C, 1 μM HSC70 bound with ATP in the presence of soluble competitor peptide; both purified

Binder	binding [1]	binding [2]	binding [3]	binding [4]
EIFESCVCK (peptide, UniProt P13569 585-593) [CFTR peptide 589-S]	binds			
SCVCKLMAN (peptide, UniProt P13569 589-597) [CFTR peptide 593-S]		binds		
ILCEHRIEA (peptide, UniProt P13569 1398-1406) [CFTR peptide 1402-S]			binds	
HRIEAMLEC (peptide, UniProt P13569 1402-1410) [CFTR peptide 1406-S]			binds	
QKVFIFSGT (peptide, UniProt P13569 1291-1299) [CFTR peptide 1295-S]	binds			
DLYLLDSPF (peptide, UniProt P13569 567-575) [CFTR peptide 571-S]	binds	no binding (tested: 100 μM)	no binding (tested: 100 μM)	
DKILILHEG (peptide, UniProt P13569 614-622) [CFTR peptide 618-S]	binds	binds		
QAFADCTVI (peptide, UniProt P13569 1390-1398) [CFTR peptide 1394-S]	binds	binds	binds	
FGVIPQKVFIFSGTF (peptide, UniProt P13569 1286-1300) [CFTR peptide 1293-L, soluble unmodified]	no binding (tested: 100 μM)	no binding (tested: 100 μM)		
KIKHSGRISFCSQFS (peptide, UniProt P13569 481-495) [CFTR peptide 488-L, soluble unmodified]	no binding (tested: 100 μM)	no binding (tested: 100 μM)	no binding (tested: 100 μM)	
GRISFCSQFSWIMPG (peptide, UniProt P13569 486-500) [CFTR peptide 493-L, soluble unmodified]	no binding (tested: 100 μM)	no binding (tested: 100 μM)	no binding (tested: 100 μM)	
EDSDEPLERRLSLVP (peptide, UniProt P13569 726-740) [CFTR peptide 733-L, soluble unmodified]			no binding (tested: up to 100 μM)	no binding
